# ± gives the uncertainty stated by the source. In all, about 9,900 compounds were measured (“viability index relative to DMSO control”: median about 1, lowest 2% from about 0.85 on). The list shows a part of the results.
# Test system: Plasmodium falciparum NF54 stage V gametocytes
# Assay: viability index relative to DMSO control (fraction); higher = less gametocyte killing
# Conditions: 2.5 µM, library set: Broad Institute DOS, incubation time: 72 h
# In short: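 Stage V gametocytes of P. falciparum NF54 were held in serum-free screening medium at 0.75% gametocytemia and 1.25% hematocrit, 10 µl per well of a 1,536-well plate, and exposed to compound at 2.5 µM for 72 hr at 37°C under low oxygen. A 3 µl mix of 2.5 µM MitoTracker Red CMXRos with 0.13% saponin was then added for one to two hours, after which one field per well was imaged and red particles of 20–70 µm2 were counted. The viability index equals this count divided by the plate mean from wells given solvent alone.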
row,SMILES,viability index
1,COc1ccc2c3c([nH]c2c1)[C@H](CO)N(C[C@]31CCN(CC1)C(=O)c1ccc2OCOc2c1)C(C)=O,1.027 ± 0.0033
2,O=C(C[C@H]1CC[C@H]2[C@@H](COC[C@@H](O)CN2C(=O)c2ccc(F)cc2)O1)N1CCCCC1,1.07 ± 0.13
3,N#C[C@H]1[C@@H](c2ccc(/C=C/c3ccccc3)cc2)[C@@H](CO)N1C(=O)C1CCCC1,1.077 ± 0.0071
4,C[C@@H]1CN([C@@H](C)CO)C(=O)CCCn2nncc2CO[C@@H]1CN(C)S(=O)(=O)c1ccc(Oc2ccccc2)nc1,1.02 ± 0.063
5,O=C(Nc1ccccc1)[C@@H]1[C@@H](CO)[C@@H]2Cn3c(ccc(C4=CCCCC4)c3=O)[C@@H]2N1Cc1cocn1,1.02 ± 0.013
6,Cn1cnc(S(=O)(=O)N2CC[C@@H]3[C@H]2c2cc(C4=CCCCC4)ccc2N[C@@H]3CO)c1,1.088 ± 0.0043
7,CCC(=O)N1[C@H](CO)[C@H](c2ccc(-c3cccc(OC)c3)cc2)[C@H]1CNC(C)=O,1.01 ± 0.018
8,COCC(=O)Nc1ccc2c(c1)[C@@H]1C[C@@H](CC(=O)NCc3ccc4c(c3)OCO4)O[C@@H](CO)[C@@H]1O2,1.01 ± 0.047
9,CC(=O)N1[C@H](CO)[C@@H](c2ccc(C3=CCCCC3)cc2)[C@@H]1CNC(=O)CN(C)C,1.012 ± 0.0042
10,O=C(C1CCCCC1)N1CC(=O)N2[C@H](CO)[C@H](c3ccc(-c4ccccc4F)cc3)[C@@H]2C1,1.04 ± 0.052
11,O=C(c1ccc2c(c1)OCO2)N1C[C@@H]2[C@H](c3ccccc31)[C@@H](CO)N2Cc1cccnc1,1.06 ± 0.087
12,C[C@@H]1CN([C@H](C)CO)C(=O)CCCn2nncc2CO[C@H]1CN(C)S(=O)(=O)c1cn(C)cn1,1.054 ± 0.006
13,O=C(NC1Cc2ccccc2C1)[C@H]1N[C@H]2c3cccc(=O)n3C[C@H]2[C@@H]1CO,1.08 ± 0.054
14,COc1ccccc1-c1ccc2c(c1)O[C@H](CN(C)CC1CCOCC1)[C@H](C)CN([C@@H](C)CO)S2(=O)=O,0.981 ± 0.059
15,O=C(C[C@@H]1CC[C@H](NC(=O)c2cccnc2)[C@H](CO)O1)NCc1ccc(Cl)c(Cl)c1,0.965 ± 0.16
16,COCC(=O)N1CC[C@@H]2[C@@H](CO)Nc3ccc(-c4ccc(C(=O)N(C)C)cc4)cc3[C@@H]21,1.05 ± 0.076
17,C/C=C/c1ccccc1[C@H]1[C@@H](CO)N(C(=O)Nc2ccccc2F)[C@H]1C#N,1.064 ± 0.0072
18,Cc1noc(C)c1NC(=O)N1C[C@@H](O)COC[C@H]2O[C@@H](CC(=O)N[C@H]3CCN(Cc4ccccc4)C3)CC[C@@H]21,1.06 ± 0.044
19,CCS(=O)(=O)N1CCCCN2[C@H](CO)[C@H](c3ccc(-c4ccc(C(=O)N(C)C)cc4)cc3)[C@@H]2C1,1.07 ± 0.16
20,Cc1noc(C)c1NC(=O)N(C)C[C@H]1Oc2ccc(NC(=O)Cc3cn(C)c4ccccc34)cc2CC(=O)N([C@@H](C)CO)C[C@H]1C,0.941 ± 0.2
21,COc1cccc(C(=O)N2C[C@H]3[C@@H](c4ccccc42)[C@H](CO)N3C(=O)c2cccc(F)c2)c1,1.01 ± 0.079
22,O=C(C1CCOCC1)N1CC2(C1)[C@H](c1ccccc1)[C@@H](CO)N2Cc1ccccc1F,1.11 ± 0.044
23,CCCC#Cc1ccc([C@@H]2[C@@H](CO)N3CCCCN(CCC)C[C@@H]23)cc1,0.997 ± 0.043

row,SMILES,viability index
1,C[C@@H]1CN([C@@H](C)CO)C(=O)c2cc(NS(=O)(=O)c3cn(C)cn3)ccc2O[C@@H]1CN(C)S(=O)(=O)c1ccc(F)cc1,0.917 ± 0.059
2,COc1ccc(S(=O)(=O)Nc2ccc3c(c2)CC(=O)N([C@H](C)CO)C[C@@H](C)[C@@H](CN(C)C(=O)Nc2c(C)noc2C)O3)cc1,1.101 ± 0.0069
3,CN1C(=O)c2cc(NC(=O)C3CCOCC3)ccc2OC[C@@H]2O[C@@H](CC(=O)NCCc3ccncc3)CC[C@@H]21,1.11 ± 0.019
4,COc1ccc2c3c([nH]c2c1)[C@H](CO)N(C[C@]31CCN(Cc2cncnc2)CC1)C(=O)CN(C)C,0.991 ± 0.06
5,CCCNC(=O)N1C[C@]2(CN(CC3CCCCC3)C2)c2c([C@H]1CO)n(C)c1cc(OC)ccc21,1.09 ± 0.06
6,COc1cccc(C#Cc2ccc([C@H]3[C@H]4CN(C(=O)Cc5cccnc5)CC(=O)N4[C@H]3CO)cc2)c1,1.057 ± 0.0037
7,C[C@H]1CN([C@@H](C)CO)C(=O)c2cc(-c3ccc(F)cc3)cnc2O[C@H]1CN(C)S(C)(=O)=O,0.997 ± 0.068
8,COc1cccc(CNC(=O)C[C@@H]2CC[C@@H]3[C@@H](COc4ccc(NS(=O)(=O)c5ccccc5F)cc4C(=O)N3C)O2)c1,1.08 ± 0.036
9,COC(=O)C[C@H]1CC[C@@H]2[C@H](COc3ccc(NS(=O)(=O)c4ccc(C)cc4)cc3C(=O)N2C)O1,1.16 ± 0.11
10,O=C(C[C@@H]1CC[C@H](NC(=O)CC2CC2)[C@@H](CO)O1)NCC(F)(F)F,0.984 ± 0.13
11,COc1ccccc1C#Cc1ccc([C@H]2[C@@H](C#N)N(C(=O)C3CCC3)[C@@H]2CO)cc1,1.05 ± 0.038
12,COCC(=O)N1[C@@H](CO)[C@@H](c2ccccc2)C12CN(C(=O)c1ccccc1)C2,1.09 ± 0.041
13,Cc1cc(C(=O)Nc2ccc3c(c2)C(=O)N(C)[C@@H]2CC[C@@H](CC(=O)O)O[C@H]2CO3)no1,1.02 ± 0.052
14,CCc1cnc(N2[C@@H](C#N)[C@H](c3ccc(C4=CCCCC4)cc3)[C@@H]2CO)s1,1.08 ± 0.022
15,C[C@@H]1CN([C@H](C)CO)C(=O)CCCn2nncc2CO[C@H]1CN(C)Cc1ccc(C(=O)Nc2ccccc2N)cc1,1.02 ± 0.13
16,N#C[C@@H]1[C@H](c2ccccc2)[C@H](CO)N1S(=O)(=O)c1cccc(F)c1,1.09 ± 0.13
17,COc1ccc2c3c([nH]c2c1)[C@H](CO)N(C[C@]31CCN(Cc2ccccc2Cl)CC1)S(=O)(=O)c1cn(C)cn1,0.982 ± 0.048
18,O=C1N[C@H](Cc2ccccc2)COCc2cn(nn2)CC[C@H]1Cc1cccc(F)c1,1.04 ± 0.05
19,C[C@@H]1CN([C@H](C)CO)C(=O)c2cc(NS(=O)(=O)c3ccccc3)ccc2O[C@@H](C)CCCCO[C@H]1CN(C)C(=O)C1CCCCC1,1.19 ± 0.027
20,O=C(C1CCOCC1)N1C[C@H]2[C@@H](c3ccccc31)[C@H](CO)N2C(=O)Cc1ccccn1,0.989 ± 0.091
21,CC(C)[C@H]1COCc2cn(nn2)CCCCC(=O)N1,1.04 ± 0.097
22,C/C=C/c1ccc([C@H]2[C@@H](CO)N(C(C)=O)[C@H]2CNC(=O)c2ccccc2)cc1,1.026 ± 0.0011
23,COc1ccc(-c2ccc3c(c2)[C@@H]2[C@@H](CCN2C(=O)c2ccncc2)[C@@H](CO)N3C)cc1,1.09 ± 0.042

# — the supplement of paper PMC4723716
